This note sets out measurements from ChEMBL document CHEMBL4888484, “Replenishing the malaria drug discovery pipeline: Screening and hit evaluation of the MMV Hit Generation Library 1 (HGL1) against asexual blood stage Plasmodium falciparum ,using a nano luciferase reporter read-out” (2022).

As usually defined, the % Inhibition is the drop in the measured response relative to a control, in per cent.

SMILES strings stand for the structures. In all, about 150,000 compounds went through this assay and about 540 (0.36%) showed an effect of 50% or more. The list shows a part of the results.

For this assay, the system named is Plasmodium falciparum. Kind of assay: Primary screen in NF54 nanoGlo assay, in single point, at 2uM, 72h; a lower Z score goes with more inhibition. Format: functional, Erythrocyte. The note with it: timepoint 72 hour.
Take `Brc1ccccc1-n1cc(CNC[C@H]2CCOC2)nn1`: the “% Inhibition” value is given as -1% and the Z score stood at 0.19.

Turning to `O=C(Nc1ccncc1)Nc1ccn(Cc2cccnc2)n1`, the “% Inhibition” value worked out at 29% and the Z score is listed as -3.87.

As for `COc1cc(F)c(CN(C)Cc2cnccn2)c(F)c1`, the “% Inhibition” value stood at 6% and the Z score was -0.91.

On to `CCn1cccc(NCc2csc(C)n2)c1=O`, for which the “% Inhibition” value was -13% and the Z score worked out at 1.81.

`CCCc1noc(CS(=O)(=O)C[C@H](O)c2ccccc2)n1`: the “% Inhibition” value was 3% and the Z score was -0.51.

For `CC(=O)N1CC2=Nc3cccc4[nH]cc(c34)[C@H](c3ccc4c(c3)OCO4)C2=C1O`, the “% Inhibition” value is on record as -3% and the Z score is 0.49.

As for `O=C(NCCS(=O)(=O)c1ccc(F)cc1)c1n[nH]c2c1CCCCC2`, the “% Inhibition” value is reported as -17% and the Z score is reported as 2.19.

In the case of `Cc1n[nH]c(C)c1[C@@H]1CCCCCN1C(=O)Nc1ccc(OC(C)C)cc1F`, the “% Inhibition” value was -21% and the Z score is reported as 2.44.

With `COc1ccc(CN[C@@]2(CO)CCOC2)cc1OCc1ccccc1`, the “% Inhibition” value is -8% and the Z score is recorded as 1.17.

On to `CCN1CC(=O)N[C@H]2CN(C(=O)CCn3nnnc3C)CC[C@@H]2OCc2cccc(c2)Oc2cccc(c2)CC1=O`, for which the “% Inhibition” value stood at 4% and the Z score is on record as -0.73.

On to `N#CCC(=O)N1CCc2c(F)ccc(F)c21`, for which the “% Inhibition” value is -12% and the Z score is listed as 1.46.

Turning to `Oc1ccccc1CCc1nncn1-c1cccnc1`, the “% Inhibition” value was -6% and the Z score was 1.06.

For `CN(C(=O)N1CCCNC(=O)[C@@H]1Cc1ccccc1)c1ccc(F)cc1`, the “% Inhibition” value worked out at 1% and the Z score is reported as -0.16.

As to `Cc1nc(C2(O)CCN(C)CC2)n(-c2ccc(Cl)cc2C)n1`, the “% Inhibition” value is given as -7% and the Z score turned out to be 1.22.

Take `COCCOCC(=O)N1CCC2(CC1)c1[nH]c3ccccc3c1CCN2C`: the “% Inhibition” value is on record as -2% and the Z score is on record as 0.32.

Regarding `Cc1cnc(C)c(-c2ccc(C(=O)N(C)Cc3nnc(C)o3)cc2)n1`, the “% Inhibition” value is listed as -8% and the Z score was found to be 0.92.

Turning to `CCOC(=O)CCN(C)C(=O)c1nc(-c2ccccc2)cn1C`, the “% Inhibition” value is reported as -1% and the Z score came to 0.21.

Turning to `CCONC(=O)C1CC(=O)N(C(C)C)C1c1ccc(Cl)c(F)c1` (stereo unspecified), the “% Inhibition” value came out at 1% and the Z score is -0.11.

On to `Cc1ccccc1N1CCN([C@H]2CCC(=O)N(Cc3ccc(F)cc3F)CC2)CC1`, for which the “% Inhibition” value is on record as -13% and the Z score worked out at 2.31.

As to `O=C(Cn1ncc(=O)c2ccccc21)N1CC(S(=O)(=O)N2CCOCC2)C1`, the “% Inhibition” value is reported as -4% and the Z score is 0.39.

With `O=C(CCc1ncc(-c2ccc(Cl)cc2Cl)o1)N1CCCC1`, the “% Inhibition” value is on record as -20% and the Z score worked out at 3.57.

For the compound `C=CCNc1cc(C)c(F)cc1C(N)=O`, the “% Inhibition” value is reported as -10% and the Z score came out at 1.14.

For `CN(c1ncc(C(=O)NCc2ccccc2F)c(N)n1)C1CCCCC1`, the “% Inhibition” value was -1% and the Z score was determined as 0.1.

Regarding `C[C@@H](CNC(=O)c1nnn2c1c(=O)[nH]c1ccccc12)c1ccccc1`, the “% Inhibition” value is listed as -3% and the Z score is 0.54.

`O=C1C[C@H]2CC[C@@H](CN1)N2S(=O)(=O)N1CCCCCC1`: the “% Inhibition” value is recorded as -18% and the Z score was 1.97.

`Cc1csc(CN(C)C(=O)N[C@@H](C)COc2ccccc2F)n1`: the “% Inhibition” value is reported as 5% and the Z score is listed as -0.93.

On to `COCCN(CC(=O)N(Cc1ccc(F)cc1)Cc1cccs1)C(=O)c1ccc(Cl)cc1Cl`, for which the “% Inhibition” value is recorded as 3% and the Z score was -0.37.

Turning to `Cc1nn(C)cc1S(=O)(=O)N1CCOc2c(F)ccc(F)c21`, the “% Inhibition” value is -7% and the Z score amounted to 0.98.

As to `Cc1ccc(C2=C[C@@H](c3ccc(C)cc3)n3nnnc3N2CC(=O)NC2CCCCC2)cc1`, the “% Inhibition” value is reported as -9% and the Z score amounted to 0.87.

Consider `CCOCC(=O)NCCn1nc(-c2ccccn2)cc1C1CC1`, for which the “% Inhibition” value is on record as -14% and the Z score was determined as 1.83.

Consider `O=C(CCC1CCCC1)NC1CCN(c2cn[nH]c(=O)c2)CC1`, for which the “% Inhibition” value is given as -6% and the Z score came out at 0.66.

Turning to `C[C@]1(c2noc(C3CCOCC3)n2)CCCN(C(=O)CCn2ccnc2)C1`, the “% Inhibition” value is listed as -2% and the Z score is reported as 0.36.

As for `CCC=C(C)C(=O)NCc1nncn1CC`, the “% Inhibition” value is on record as -3% and the Z score stood at 0.37.

Turning to `Cc1cc(=O)[nH]c(C(C)(C)NC(=O)[C@H](C)c2ccccc2C)n1`, the “% Inhibition” value is reported as -15% and the Z score is 2.42.

For `CCOC(=O)c1cccc(NC(=O)c2ccc(Oc3nccnc3N3CCOCC3)cc2)c1`, the “% Inhibition” value is 7% and the Z score is -1.08.

With `CCN(C(=O)c1c(C)ccn1C)C1CN(C(=O)c2c(C)ccn2C)C1`, the “% Inhibition” value is given as -12% and the Z score turned out to be 1.39.

As for `CCn1nc(C(=O)N2CCOC[C@@H]2CC2CC2)c(=O)c2ccccc21`, the “% Inhibition” value is on record as -12% and the Z score was found to be 2.16.

For the compound `Cc1sc(-c2ccno2)cc1S(=O)(=O)N1CCc2ccccc2C1`, the “% Inhibition” value is 3% and the Z score is listed as -0.45.

As to `O=C(CCCN1C(=O)c2ccc(Br)cc2C1=O)Nc1scnc1-c1ccccc1`, the “% Inhibition” value is recorded as 3% and the Z score was -0.37.

As to `Fc1cc(F)cc(-c2noc3ncnc(NCCCN4CCOCC4)c23)c1`, the “% Inhibition” value is given as -9% and the Z score is reported as 1.28.

In the case of `CCC(CC)c1nnc(NC(=O)N(CC)C[C@H]2CCOC2)s1`, the “% Inhibition” value is -13% and the Z score was found to be 1.28.

As to `CC(C)Cc1nc(C(=O)NS(=O)(=O)c2cnn(C)c2)cs1`, the “% Inhibition” value is -3% and the Z score is 0.42.

For `CCN1CCN(Cc2ccc(NC(=O)c3cn(-c4cccc(OC)c4)c(=O)c4ccccc34)cc2)CC1`, the “% Inhibition” value was found to be 0% and the Z score is on record as -0.05.

Turning to `CC(C)(CNC(=O)N1CCC[C@H](c2cn[nH]c2)C1)CC1CCOCC1`, the “% Inhibition” value is -5% and the Z score was 0.67.

With `COc1ccccc1-c1nc2n(n1)[C@]1(Nc3ccccc3-2)C(=O)Nc2ccc(Br)cc21`, the “% Inhibition” value is given as -10% and the Z score is on record as 0.98.

As to `Cn1cccc(NC(=O)NCC2CC23CCCc2ccccc23)c1=O` (stereo unspecified), the “% Inhibition” value is given as -6% and the Z score came out at 0.53.

Take `O=C(NS(=O)(=O)c1ccc2[nH]nnc2c1)C1CC2(CCC2)C1`: the “% Inhibition” value is -7% and the Z score is recorded as 0.68.

`CN(Cc1cnccn1)Cc1ccccc1-c1ccco1`: the “% Inhibition” value is reported as 4% and the Z score is -0.71.

Consider `Cc1ccc(Oc2ccc(C(=O)N3CCCC[C@@H]3C)cc2)nn1`, for which the “% Inhibition” value is 3% and the Z score was -0.5.

As for `c1cncc(-c2ncc(CN3CCC(C4CCOCC4)CC3)s2)c1`, the “% Inhibition” value is given as 1% and the Z score is recorded as -0.11.

With `COc1cccc(CNS(=O)(=O)c2cc(-c3c(C)nn4c3NC(=O)CCC4=O)ccc2OC)c1`, the “% Inhibition” value was found to be 2% and the Z score is listed as -0.21.

In the case of `COCCOc1cc(=O)n2c(c1C(=O)NC1CCCCC1)CCOCC2`, the “% Inhibition” value is -10% and the Z score is given as 1.19.

Take `Cc1cc(NCCc2nnc(C)s2)n2nccc2n1`: the “% Inhibition” value was -18% and the Z score is on record as 3.41.
